# Results: PubChem BioAssay AID1508624 (National Center for Advancing Translational Sciences (NCATS), 2021)
# The whole screen tested about 48,000 compounds, of which about 120 (0.25%) were called active. Not shown: some 4% with an inconclusive outcome. Calls follow the shape of the dose curve; as a rule, active = well fitted activation curve with a large enough effect; inconclusive = small, poorly fitted or top-dose-only effect, or another doubt; inactive = no such curve, though single readings can be large or run the other way. Some of the results follow.
# Test: Primary qHTS for Identification of Small Molecule Activators of Huntingtin-Antisense Promoter Activity; also: nearly all actives have a fitted effect of over 55% in size
# Conditions: HEK293 HTT-AS promoter firefly luciferase reporter, 24 h; series mostly up to 57.5 µM; activity change, positive = activation: at the top concentration
# In short: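 HEK293 cells carrying firefly luciferase reporters were seeded at 2,500 per well in Opti-MEM and cultured for 24 h. They were then treated with compounds at up to 57.5 uM final for 24 h at 37 degrees C before Dual-Glo luminescence readout.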
row,SMILES,"activity change, positive = activation"
1,CCOC(=O)Cn1c(=O)n(CC2CCCO2)c2nc(-c3ccc(OCC)cc3)nc(C(N)=O)c21 (configuration not stated),inactive: -8.37%
2,CCOc1ccccc1NC(=O)Cn1c(=O)n(Cc2ccccc2)c(=O)c2c1c1cc(C)ccc1n2C,inactive: -13.8%
3,COc1ccc(CCNC(=O)c2ccc3c(c2)CCN3S(=O)(=O)c2ccccc2)cc1OC,inactive: -28.6%
4,COc1ccccc1Nc1c2c(nc3ccc(NC(=O)c4ccc(OC)c(OC)c4)cc13)CCCC2,inactive: -22.5%
5,Cc1ccc(-n2ncc(C(=O)NCc3ccccc3)c2C2CCN(C(=O)OC(C)(C)C)CC2)cc1,inactive: -30.2%
6,CCOC(=O)c1cc(-c2ccc(OC)c(S(=O)(=O)NC3CCCCC3)c2)on1,inactive: -5.72%
7,CCCCN(CC)CCCNC(=O)CN1C(=O)CSc2ccc(S(=O)(=O)N3CCOCC3)cc21,inactive: 4.26%
8,COc1ccc(CCNC(=O)CN2C(=O)COc3ccc(C)cc32)cc1OC,inactive: -20.3%
9,CCN(C(=O)Cn1nc(Cc2ccncc2)c2ccccc2c1=O)c1cccc(Cl)c1,inactive: -13%
10,c1ccc2sc(SSc3nc4ccccc4s3)nc2c1,"inactive: 5.83% [at 25.1 µM, percent change from vehicle, -100% = no light]"
11,COc1ccccc1N(CC(=O)N1CCC(C)CC1)S(=O)(=O)c1ccc(C)cc1,inactive: -17.3%
12,COCCCNC(=O)c1c(-c2ccccc2)c(-c2ccccc2)nn(C)c1=O,inactive: -14.3%
13,COc1cc(NC(=O)c2nn(C)c3c2CS(=O)(=O)c2ccccc2-3)cc(OC)c1,inactive: -7.95%
14,O=C(Nc1ccc2nc3n(c(=O)c2c1)CCCCC3)C(=O)Nc1ccccc1F,inactive: 15.8%
15,CCc1ccc(Cn2c(CNS(=O)(=O)c3ccc([N+](=O)[O-])cc3)nc3cccnc32)cc1,inactive: -21.1%
16,Cc1cccc(Nc2nn3c(=O)c4cc5c(cc4nc3s2)OCO5)c1,inactive: 24.4%
17,CCn1nc(C)c(CCN(C)C(=O)Nc2ccc(C)c(Cl)c2)c1C,inactive: 1.02%
18,Cc1ccccc1Nc1c(-c2ccc(Br)cc2O)nc2sccn12,inactive: -32.3%
19,CCOc1ccc(NC(=O)Cn2cc(C(=O)c3ccc(OC)cc3)c(=O)c3cc4c(cc32)OCO4)cc1,inactive: -34.3%
20,COc1ccccc1N1CCN(C(c2ccc(Cl)cc2)c2nnc(-c3cccc(F)c3)o2)CC1 (configuration not stated),inactive: -16.4%
21,N#Cc1c(O)c2c(-c3ccc(-c4ccccc4O)cc3)csc2[nH]c1=O,inactive: 2.01%

row,SMILES,"activity change, positive = activation"
1,O=C(Nc1ccc(Cl)c(-c2nc3ccccc3o2)c1)c1ccc(-c2cccc([N+](=O)[O-])c2)o1,inactive: -7.9%
2,CCCSc1oc(-c2ccco2)nc1S(=O)(=O)c1ccc(Cl)cc1,inactive: -11.7%
3,COc1ccccc1CNC(=O)c1cnc(N(C)C)nc1,inactive: -5.39%
4,COc1ccc(CC(=O)Nc2sc3c(c2C(=O)Nc2cccc(C)c2)CCCCC3)cc1,inactive: -33.8%
5,CCCCOC(=O)c1ccc(OC(=O)c2sc3ncn(Cc4ccccc4Cl)c(=O)c3c2C)cc1,inactive: -9.29%
6,Cc1ccc(Cl)cc1Nc1sc(C(=O)c2ccc(F)cc2)c(N)c1S(C)(=O)=O,inactive: -33.8%
7,O=C(CSc1nc(=O)n(Cc2ccco2)c2c1CCC2)Nc1cccc(F)c1,inactive: -19.7%
8,CCOc1ccc(CNCCCSc2nnnn2C)cc1OC,inactive: -10.8%
9,COc1cccc(CNC(=O)Cc2csc3nc(-c4ccccc4)cn23)c1,inactive: -8.46%
10,Cn1c(=O)c2nc3ccc(NC(=O)C(F)(F)F)cc3nc2n(C)c1=O,inactive: 8.27%
11,Cc1ccc2c(c1)C(c1ccccc1)N(C(=O)c1ccc(S(=O)(=O)N3CCCC3)cc1)CC(=O)N2 (configuration not stated),inactive: -8.14%
12,N=C(N)c1ccc(OCCCCCOc2ccc(C(=N)N)cc2)cc1,inactive
13,Cc1ccc(NC(=O)CN2C(=O)CSc3ccc(S(=O)(=O)N(C)C)cc32)c(C)c1,inactive: -5.44%
14,COc1ccc2sc(N(Cc3cccnc3)C(=O)C3COc4ccccc4O3)nc2c1 (configuration not stated),inactive: 11%
15,O=S(=O)(c1ccccc1)c1nnn2c1nc(N1CCN(c3ccccc3)CC1)c1cc(Cl)ccc12,inactive: 9.89%
16,NS(=O)(=O)OC[C@@H]1C[C@@H](n2ccc3c(N[C@H]4CCc5ccccc54)ncnc32)C[C@H]1O,inactive: -31%
17,O=C(Cn1cc2c(n1)CCCC2)Nc1cc(C(F)(F)F)ccc1Cl,inactive: -23.9%
18,CCCn1cc(S(=O)(=O)c2ccccc2)c(=O)c2cc(F)c(N3CCCCCC3)cc21,inactive: -30.9%
19,Cc1nc(SCc2ccccc2Cl)c(C#N)c(C)c1C,inactive: -13.8%
20,Cc1cc(C)cc(NC(=O)c2sc3nc4n(c(=O)c3c2C)N=C(c2ccc(F)cc2)CS4)c1,inactive: -4.4%
21,COc1ccc(NC(=O)Cn2c(SCc3ccc(F)cc3)nc3cccnc32)c(OC)c1,inactive: 3.32%

row,SMILES,"activity change, positive = activation"
1,COc1cccc(N2CCN(C(=O)c3cc4c(=O)n(Cc5cccnc5)ccc4nc3C)CC2)c1,inactive: -2.23%
2,CCOc1ccc(C(=O)Nc2nc(-c3ccc(Br)cc3)ns2)cc1,inactive: -15.1%
3,COC(=O)c1ccccc1NC(=O)CCC(=O)N1CC(C)Sc2ccccc21 (configuration not stated),inactive: -7.07%
4,COC(=O)C(NC(=O)CCc1c(C)nc2cc(-c3cccc(F)c3)nn2c1C)C(C)C (configuration not stated),inactive: -65.7%
5,Cc1ccc2c(=O)cc(C(=O)Nc3ccc(S(=O)(=O)N4CCCCC4)cc3)oc2c1,inactive: -2.9%
6,CCC(Cc1ccccc1)NC(=O)CCS(=O)(=O)c1cc2c(cc1Cl)NC(=O)CO2 (configuration not stated),inactive: -14.2%
7,COc1ccc(NC(=O)C2CCCN(c3cnccn3)C2)c(OC)c1 (configuration not stated),inactive: 8.16%
8,CCOc1ccc(CNC(=O)Nc2ccc3c(c2)N(C)C(=O)c2ccccc2S3)cc1,inactive: -48.8%
9,Cc1ccc(NC(=O)CSc2cn(CC(=O)N3CCOCC3)c3ccccc23)cc1Cl,inactive: -5.14%
10,CCOc1ccc2c(c1)c(=O)c(C(=O)c1ccc3c(c1)OCO3)cn2Cc1cccc(F)c1,inactive: -23.4%
11,COc1ccc(-n2ccnc(NCc3cccs3)c2=O)cc1,inactive: -3.1%
12,CCOc1ccc(-n2c(C)nc3cc(C(=O)NCc4ccc(C)cc4)ccc32)cc1,inactive: -19.8%
13,COC(=O)Nc1nc2ccc(C(=O)c3ccccc3)cc2[nH]1,inactive
14,COc1ccc(-c2ccc(-c3noc(-c4cc(OC)cc(OC)c4)n3)c(OC)n2)cc1,inactive: -0.866%
15,CCn1c(=O)cc(SCC(=O)Nc2cc(Cl)ccc2OC)c2ccccc21,inactive: -17.2%
16,CCOc1ccc(-c2nnc(SCC(=O)Oc3ccccc3)o2)cc1,inactive: -89.5%
17,Cc1ccc(C(=O)Nc2nnc(S(=O)(=O)N(C)Cc3ccc(F)cc3)s2)cc1,inactive: -0.753%
18,CC1CCCN(c2nc(-c3ccccc3O)nc3ccccc23)C1 (configuration not stated),inactive: -10.8%
19,O=c1c2c3c(sc2nnn1Cc1ccc(F)cc1)CCCC3,inactive: 0%
20,CCc1cccc(NC(=O)CSc2n[nH]c(-c3ccccc3Cl)n2)c1,inactive: -28.5%
